The other results are listed elsewhere or left out. At the low end of the ranking the order means little.

This experiment relates to MYC (p64) + MAX (p21), in MYC:MAX. Kind of experiment: protein-binding microarray (anti-MAX antibody). The conditions noted are these: PBM: 15 mM Tris-HCl pH 7.5, 100 mM KCl, 0.075% NP40, 7.5 mM beta-mercaptoethanol, 375 ng/ul BSA, 8 ng/ul poly(dA-dT):(dA-dT), 550 ng complex, 60 min, room …; high values mean tight binding; double strand, one strand shown; sequences stand for … in CCGGC…TTAATAGCTAAGATTACTATATCGACG
Consider TGATTGGCTGTA, for which the binding signal (log2 normalized fluorescence) was -0.261. For TGAATGTAGGTA, the binding signal (log2 normalized fluorescence) stood at 0.115. For the sequence TGAGCTAAAGTA, the binding signal (log2 normalized fluorescence) is -0.0842. TGAAGCAGGGTA: the binding signal (log2 normalized fluorescence) came to 0.0399. As to TGACCACAAGTA, the binding signal (log2 normalized fluorescence) came out at 0.407. The value for TGAGCGACTGTA was 0.116. To TGACACGTATGA belongs 0.343. For the sequence TGATGTCTCGTA, the binding signal (log2 normalized fluorescence) was 0.169. To TGACGTCCAGTA belongs 0.172; to TGACGCGTGGTA, 0.398; to TGAAAAGTGGTA, 0.0228. For the sequence TGATCATGCGTA, the binding signal (log2 normalized fluorescence) was 0.415.

TGACAGTTTGTA: the binding signal (log2 normalized fluorescence) was found to be 0.0712.

For TGAGCGATAGTA, the binding signal (log2 normalized fluorescence) is -0.0333. As for TGAATTTCTGTA, the binding signal (log2 normalized fluorescence) was -0.0074. Take TGATGAGTGGTA: the binding signal (log2 normalized fluorescence) is 0.165.

Regarding TGATTCCAGGTA, the binding signal (log2 normalized fluorescence) turned out to be 0.0199.

For TGAAGACTTGTA, the binding signal (log2 normalized fluorescence) stood at 0.00922. Take TGACAGAGTGTA: the binding signal (log2 normalized fluorescence) was found to be 0.254. With TGATAGACAGTA, the binding signal (log2 normalized fluorescence) amounted to 0.0938. To TGAGTCCAAGTA belongs -0.077; to TGAAGTGTTGTA, 0.108. Consider ACTTATAGATTT, for which the binding signal (log2 normalized fluorescence) was determined as 0.0214.

As for TGAGGTCTCGTA, the binding signal (log2 normalized fluorescence) was found to be 0.0819. Take TGACATTAAGTA: the binding signal (log2 normalized fluorescence) amounted to 0.0899.

Take TGAATCCCGGTA: the binding signal (log2 normalized fluorescence) is -0.0316. Take TGAAGAACTGTA: the binding signal (log2 normalized fluorescence) was 0.104.

With TGAGTCCGCGTA, the binding signal (log2 normalized fluorescence) was 0.0725. Regarding TGAGTAAAAGTA, the binding signal (log2 normalized fluorescence) is -0.207. To TGAGCAGCTGTA belongs 0.134.

For the sequence TGAGCTGGGGTA, the binding signal (log2 normalized fluorescence) amounted to 0.102. Regarding TGAACGCGAGTA, the binding signal (log2 normalized fluorescence) worked out at 0.27. The value for TGAGCCGTGGTA was 0.133; that for TGAGTTAATGTA was -0.0995; that for TGATGCAGAGTA was 0.0296. Turning to TGAAGCGGCGTA, the binding signal (log2 normalized fluorescence) came to 0.0733. For the sequence TGATACGTCGTA, the binding signal (log2 normalized fluorescence) was 0.0297.

TGAGTAGAGGTA: the binding signal (log2 normalized fluorescence) is -0.202. With TGTAACGTGGTA, the binding signal (log2 normalized fluorescence) amounted to 0.561. To TGAGGGTTAGTA belongs 0.0301; to TATTACGTGGTA, 0.323. On to TGAAGTAGCGTA, for which the binding signal (log2 normalized fluorescence) amounted to 0.0615. AGACGGGAGGTT: the binding signal (log2 normalized fluorescence) turned out to be 0.196. On to TGACAAGTTGTA, for which the binding signal (log2 normalized fluorescence) was 0.0647.

With TGACCGGTCGTA, the binding signal (log2 normalized fluorescence) came to 0.187. On to TGACGGGTGGTA, for which the binding signal (log2 normalized fluorescence) turned out to be 0.25. Take TGAAGGCGTGTA: the binding signal (log2 normalized fluorescence) was found to be 0.409.

Regarding TGATTTGGCGTA, the binding signal (log2 normalized fluorescence) was -0.169. Turning to TGATACTAAGTA, the binding signal (log2 normalized fluorescence) is -0.00702.

In the case of TGAGGAGCAGTA, the binding signal (log2 normalized fluorescence) was -0.103.

As to TGAGCTCACGTA, the binding signal (log2 normalized fluorescence) is 0.183. In the case of TGATCTACGGTA, the binding signal (log2 normalized fluorescence) is -0.0274. The value for TGAAACACGGTA was 0.314.

For the sequence TGAACATGAGTA, the binding signal (log2 normalized fluorescence) turned out to be 0.232.

Regarding TGACCTTCAGTA, the binding signal (log2 normalized fluorescence) turned out to be 0.196. As for TGACGCGTGCTA, the binding signal (log2 normalized fluorescence) was 0.61. To TGACCGAGCGTA belongs 0.252; to TGAAGTAGGGTA, -0.117; to TGAATGGCGGTA, 0.208. With TGAACTCAGGTA, the binding signal (log2 normalized fluorescence) stood at 0.097. Take TGACTCCAGGTA: the binding signal (log2 normalized fluorescence) was found to be 0.1.

On to TGAGGGTCTGTA, for which the binding signal (log2 normalized fluorescence) is 0.0879. Regarding TGAGTACACGTA, the binding signal (log2 normalized fluorescence) was 0.0802. For TGACAGCAAGTA, the binding signal (log2 normalized fluorescence) stood at 0.286. Turning to TGAATGAGGGTA, the binding signal (log2 normalized fluorescence) was determined as 0.205.

On to TGAAGCGGGGTT, for which the binding signal (log2 normalized fluorescence) amounted to 0.29.

With TGATCTGCTGTA, the binding signal (log2 normalized fluorescence) was -0.133.

For TGAGCATTTGTA, the binding signal (log2 normalized fluorescence) was 0.251. For the sequence TGAAGGCTCGTA, the binding signal (log2 normalized fluorescence) is -0.0491.

For TGAAGTGATGTA, the binding signal (log2 normalized fluorescence) was 0.206.

As to TGACAGTCGGTA, the binding signal (log2 normalized fluorescence) amounted to 0.0326.

Turning to TGAGGGGAGGTA, the binding signal (log2 normalized fluorescence) turned out to be 0.438. Take TAACAAGTGATA: the binding signal (log2 normalized fluorescence) is 0.257. For the sequence TGAATTTGAGTA, the binding signal (log2 normalized fluorescence) is -0.118.

In the case of TGAGGACGCGTA, the binding signal (log2 normalized fluorescence) was 0.165. Regarding TGATAGCAGGTA, the binding signal (log2 normalized fluorescence) came out at 0.127. Consider TGACACATGGTC, for which the binding signal (log2 normalized fluorescence) amounted to 0.657.

For TGAAGTACGGTA, the binding signal (log2 normalized fluorescence) was 0.0239.

In the case of TGATCGCCAGTA, the binding signal (log2 normalized fluorescence) is -0.0281.

In the case of TGACACGTGGGC, the binding signal (log2 normalized fluorescence) was 0.74. Regarding TCCAACGTGGTA, the binding signal (log2 normalized fluorescence) came to 0.579.

Turning to TGAGTCCAGGTA, the binding signal (log2 normalized fluorescence) was -0.252. Turning to TGAAGCAGTGTA, the binding signal (log2 normalized fluorescence) is 0.026. To TGACATCCTGTA belongs 0.102. On to TGACACACGGTA, for which the binding signal (log2 normalized fluorescence) was 0.561. Turning to TGAGCTGACGTA, the binding signal (log2 normalized fluorescence) is -0.0553. In the case of TGACGCCTTGTA, the binding signal (log2 normalized fluorescence) was determined as 0.156. As for TGACTCGGAGTA, the binding signal (log2 normalized fluorescence) was -0.15. On to TGATCCTACGTA, for which the binding signal (log2 normalized fluorescence) came to 0.0765. Regarding TGATCTAACGTA, the binding signal (log2 normalized fluorescence) is 0.0389. On to TGAGCCTTAGTA, for which the binding signal (log2 normalized fluorescence) is -0.121. As to TGATTGCAGGTA, the binding signal (log2 normalized fluorescence) amounted to 0.00225. As for TGAAAACGGGTA, the binding signal (log2 normalized fluorescence) amounted to 0.128. On to TGACATCGTGTA, for which the binding signal (log2 normalized fluorescence) was determined as 0.401. The value for TGAGAATCGGTA was -0.108. Take TGACACGCTCTA: the binding signal (log2 normalized fluorescence) worked out at 0.665. The value for TGATGATGTGTA was 0.057; that for TGATAAGCCGTA was -0.185.

Take TGAGTGGCGGTA: the binding signal (log2 normalized fluorescence) is 0.0916. In the case of TGATGCGCCGTA, the binding signal (log2 normalized fluorescence) is 0.153.

In the case of TGAGTCCTCGTA, the binding signal (log2 normalized fluorescence) was found to be 0.208.

Take TGACCCGGGGTC: the binding signal (log2 normalized fluorescence) amounted to 0.0341. As for TGAGATCCAGTA, the binding signal (log2 normalized fluorescence) was -0.0919.

For the sequence TGATTATTAGTA, the binding signal (log2 normalized fluorescence) was -0.0626. For the sequence TGATCCAATGTA, the binding signal (log2 normalized fluorescence) was -0.0218. The value for TGATCGAGCGTA was -0.116.

For TGAATAAGTGTA, the binding signal (log2 normalized fluorescence) was 0.0824.

Consider TGATGAACTGTA, for which the binding signal (log2 normalized fluorescence) turned out to be 0.136. For the sequence TGAGTGACAGTA, the binding signal (log2 normalized fluorescence) was found to be 0.00932.

With TGATGTGCAGTA, the binding signal (log2 normalized fluorescence) was determined as 0.236. As to TGACCAGACGTA, the binding signal (log2 normalized fluorescence) stood at 0.135. Turning to TGATTTGCTGTA, the binding signal (log2 normalized fluorescence) is -0.0458. With TGAGCAGTCGTA, the binding signal (log2 normalized fluorescence) is 0.0523.

Consider TGGCACTTGGTA, for which the binding signal (log2 normalized fluorescence) came to 0.157. For the sequence TGATTTGTGGTA, the binding signal (log2 normalized fluorescence) is -0.0148. TGCCATGTGGGA: the binding signal (log2 normalized fluorescence) is 0.899. The value for TGATTCAGCGTA was -0.127; that for TGACAGGATGTA was 0.0981.

On to CGCCACGTGGTC, for which the binding signal (log2 normalized fluorescence) stood at 0.884. The value for TGAATTGGTGTA was 0.091; that for TGACACGTGGAA was 0.698; that for TGATGGCCCGTA was -0.0184.

As to TGACCCATGGTA, the binding signal (log2 normalized fluorescence) was found to be 0.407.

For the sequence TGATAAAAAGTA, the binding signal (log2 normalized fluorescence) was -0.00091. Regarding TGAGTTGTTGTA, the binding signal (log2 normalized fluorescence) is -0.128. Take TGATTCACGGTA: the binding signal (log2 normalized fluorescence) is 0.00748. The value for TGAAAATGCGTA was 0.248. To TGAAACGTCGTA belongs 0.0788; to TGAGGAACCGTA, -0.0339. Consider CGACGCGAGGTA, for which the binding signal (log2 normalized fluorescence) came to 0.462. Take TCATACGTAGTA: the binding signal (log2 normalized fluorescence) was 0.166. Regarding TCTCAGGTTTTT, the binding signal (log2 normalized fluorescence) was -0.0664. To TGATTGACGGTA belongs -0.0162. As to TGAGGGCTGGTA, the binding signal (log2 normalized fluorescence) is 0.0137. For the sequence TGACACAGTGTA, the binding signal (log2 normalized fluorescence) worked out at 0.232. Consider TGATGTGGCGTA, for which the binding signal (log2 normalized fluorescence) turned out to be 0.151. TGACCATCCGTA: the binding signal (log2 normalized fluorescence) amounted to 0.173.

As for TGATGGTTCGTA, the binding signal (log2 normalized fluorescence) is 0.159.

Values taken from publication PMC5515408.
